Some of the results follow.
T1: UNK ZnF1-6 (called full-length) (human, UniProt Q9C0B0 30-357)
T1 sequence: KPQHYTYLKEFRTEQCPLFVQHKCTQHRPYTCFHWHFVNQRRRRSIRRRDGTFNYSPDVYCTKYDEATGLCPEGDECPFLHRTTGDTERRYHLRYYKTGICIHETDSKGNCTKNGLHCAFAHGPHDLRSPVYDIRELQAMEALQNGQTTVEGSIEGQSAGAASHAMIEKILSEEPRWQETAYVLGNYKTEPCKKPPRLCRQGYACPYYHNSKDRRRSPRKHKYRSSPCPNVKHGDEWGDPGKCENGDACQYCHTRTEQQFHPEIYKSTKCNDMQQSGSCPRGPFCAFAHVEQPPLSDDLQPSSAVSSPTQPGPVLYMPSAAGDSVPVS

B1: chr4:138171744:138171845:-|3pUTR|ENSG00000151012|msi1|total|mutant (ssRNA)
RNA: GGGAGUUCUACAGUCCGACGAUCAGGAGUCAGUUAUUUUUAUUCAUAUAUUUCCGCAUAUUCGAACUAAUUUCUAAGAAAUUCCGUUAUAACUCUAUGCCGUUACCGAAAGUGAAUAUGCAGUUAUUCUAUGAGUCGCACAAUCAACAGAGGAUUGAGCAUCA
B2: ENSG00000106683:stop:overlap|stop_codon|ENSG00000106683|stop_codon|NA|stop_codon (ssRNA)
RNA: GGGAGUUCUACAGUCCGACGAUCGCUCUGCCCGGCAGAAACCUGUCUUCGCAAGGACCUGGGUCGCUCUGAGUCCCUCCGCGUAGUCUGCCGGCCACACCGCAUCUUCCGGCCGUCGGACCUCAUCCACGGGGAGGUGCUGGGCAACAGAGGAUUGAGCAUCA
B3: ENSG00000096717:stop:overlap|stop_codon|ENSG00000096717|stop_codon|NA|stop_codon (ssRNA)
RNA: GGGAGUUCUACAGUCCGACGAUCAUGAAGCUAUAUCUGUGAAACAGGAAGUAACAGACAUGAACUAUCCAUCAAACAAAUCAUAGUGUAAUAAUUGUGCAGGUACAGGAAUUGUUCCACCAGCAUUAGGAACUUUAGCAUGUCCAACAGAGGAUUGAGCAUCA
B4: chr8:12150890:12151093:-|CDS|ENSG00000254866|control|control|control (ssRNA)
RNA: GGGAGUUCUACAGUCCGACGAUCGAUGUCUGCAAAGUAGUAGAAGAUCAAAUUGGUGCCUGCCGAAGAAGGAUGAAGUGUUGUAGAGCAUGGUGGAUUUUAAUGCCAAUUCCAACACCACUUAUCAUGUCAGAUUAUCAAGAACAACAGAGGAUUGAGCAUCA
B5: chr1:213005240:213005351:-|CDS|ENSG00000174606|unk|FALSE|unique (ssRNA)
RNA: GGGAGUUCUACAGUCCGACGAUCGAACCCAGUGGAAUUCUUCCGCCCUGAUAUUUCUCUGUUGGACAGAGACAAUGUUGGAUUAGUUUUACUCUUACAGCCCAAAAUUCCAUAUGCUGCCUGCCCUGCAAUCUGCGUAGCAAACAACAGAGGAUUGAGCAUCA
B6: ENSG00000124766:be:win_1101|CDS|ENSG00000124766|bound_else_gene|NA|bound_elsewhere_windowed (ssRNA)
RNA: GGGAGUUCUACAGUCCGACGAUCCUCGCCCGCCCCGUCCAGCGCGCCCUCGCACGCGUCCUCCUCGGCCUCGUCCCACUCCUCCUCUUCCUCCUCCUCGGGCUCCUCGUCCUCCGACGACGAGUUCGAAGACGACCUGCUCGACAACAGAGGAUUGAGCAUCA
B7: ENSG00000148396:stop:overlap|stop_codon|ENSG00000148396|stop_codon|NA|stop_codon (ssRNA)
RNA: GGGAGUUCUACAGUCCGACGAUCCCACCUCCGGGAGCUCAAGGCUAGGGAGGAUUGGCCAGAGGAAGCACCUGGUGCUGAACUAGGCUUGCCCUGCUGUGAACUUGCACUUGGAGCCCUGACGCUGCUGUUCUCCCCGAAGAACAACAGAGGAUUGAGCAUCA
B8: ENSG00000198589:be:win_4101|CDS|ENSG00000198589|bound_else_gene|NA|bound_elsewhere_windowed (ssRNA)
RNA: GGGAGUUCUACAGUCCGACGAUCUAUGGUCAUGGCUUGUGGGGGUAUACUGCCAUUGCUUUCAGCUGCUACAUCGGCUACACAUGAACUGGAAAAUAUUGAACCUACUCAAGGCCUUUCAAUAGAAGCCUCUGUGACAUUUUUCAACAGAGGAUUGAGCAUCA
B9: ENSG00000100439:stop:overlap|stop_codon|ENSG00000100439|stop_codon|NA|stop_codon (ssRNA)
RNA: GGGAGUUCUACAGUCCGACGAUCCUGUCCUAGGACGUUCCAAUCCAUUGGCUGUUCUUCGAGUAGCUGGGCCCUGGGGUGAGUAGCCUGAAUACAAAGGUGACUAAGAUUCUGCCUCAGUCUCUGAAGAGACCAACAAGUUGACAACAGAGGAUUGAGCAUCA
B10: chr11:108173179:108173289:-|CDS|ENSG00000149308|unk|FALSE|unique (ssRNA)
RNA: GGGAGUUCUACAGUCCGACGAUCUGGUUCCAAGUCAUCAGAUUCUAGUGAAGUUCACAAGAGUAAAAUAGAAAUUAAUGUGUUAGAACCAGUUAUGUCACAGCUAUCAAAUUGCCAAGAUAAUUCUUGUCUUCAAAGUGAAAUCAACAGAGGAUUGAGCAUCA
B11: chr17:35009752:35009853:-|3pUTR|ENSG00000092871|msi1|total|mutant (ssRNA)
RNA: GGGAGUUCUACAGUCCGACGAUCAUUCAGCUACUCAGUUCCUCUGUAAAACAGGUCUAUGUAUGUGCAAUUCAGCUAAGAUCCCGCAGUAACUUAAGGGCAGAAGCUGGCUCUCUACUUACAACCUGCUUUCUCUGCUGAAGCCAACAGAGGAUUGAGCAUCA
B12: ENSG00000107863:be:win_3951|CDS|ENSG00000107863|bound_else_gene|NA|bound_elsewhere_windowed (ssRNA)
RNA: GGGAGUUCUACAGUCCGACGAUCGGUCACCCACAUGCCUGACCAGUACAAGAUUGUAGAAACGCUCAUCCAGCACCAUGACUGGUUUUUCACAGAAGAAGGUGCUGAAGAGCCUCUUACAACAGUGCAGGAGGAAAGCACAGUCAACAGAGGAUUGAGCAUCA
B13: chr20:38493008:38493109:+|CDS|ENSG00000170471|unk|total|mutant (ssRNA)
RNA: GGGAGUUCUACAGUCCGACGAUCAUUGGAUGGAGAGACUGUAAAAUAUUGCGUUGAUGUAUAUACAGACUGGAUUAUGGCUUCCGUGUUGCCAAAAGAUUCUAUUCCAUUGCCAGUUAUUAAAGAGCCUAAUCAAUAUGUUCACAACAGAGGAUUGAGCAUCA
B14: chrX:100674576:100674677:+|3pUTR|ENSG00000102359|msi1|total|mutant (ssRNA)
RNA: GGGAGUUCUACAGUCCGACGAUCUUGCAAUCCACACCAAAUCAAUCUUUGAAAACAUUCCUCCAUUCGGUUCAUACAUACAGCCGAAACCACUGUGGCUGCCCUUAAUCCAGUGUGCUUACCGGAAAUCAGUCCGCAGCUGACCAACAGAGGAUUGAGCAUCA
B15: chr7:44210018:44212343:-|three_prime_utr|ENSG00000058404|control|control|control (ssRNA)
RNA: GGGAGUUCUACAGUCCGACGAUCCCCCAAUCCUGGCAGGCGUGGCAGAGGGAGCUCCACAGGACACAGCCAGGCAGAGAAACUAGCACUAGAACAGGGUGGGGGUGGAGGCCUUGAGGGAAGCUGUCCACAAGCAAUUCCCAUCAACAGAGGAUUGAGCAUCA
B16: chr1:23091194:23091296:-|CDS|ENSG00000169641|unk|total|mutant (ssRNA)
RNA: GGGAGUUCUACAGUCCGACGAUCCUCCAGAAGGACCCAAAGCCGCCUCACUGUGUCAGAGGUGCUUACCCGUCGGAAUCGGGCCGGAGACACCAUCACUGUCGCAGCCUGGAACCACUCAGCAAGCAUGGUGAGUUCCAGCCUCAACAGAGGAUUGAGCAUCA
B17: chr12:122271799:122271900:-|3pUTR|ENSG00000130779|msi1|FALSE|bound_elsewhere (ssRNA)
RNA: GGGAGUUCUACAGUCCGACGAUCGUAUAAAACACCUAAAUAACCAAUCUACAAUCUCCCUUCACAAGUUUUUUUACUGUUUUUAGAUGAAUGUACGAUGAGAAAUUCAACGUUAAUAAUUCUGGAUUUUCUUAUCACAAAAAACAACAGAGGAUUGAGCAUCA
B18: chr12:68660398:68660499:+|3pUTR|ENSG00000127314|msi1|total|mutant (ssRNA)
RNA: GGGAGUUCUACAGUCCGACGAUCUUGAGGUGGCCAAAUGUAAACUAAAAGCCUUAAUUAAAGUGGUGCAAUUUUGUAUAACUCCGCAUCAGCCGUUCAAUAAAUUUGGAUUGCCAUGCAAGGGCUUGCAUUAUAAUUACUUGCCAACAGAGGAUUGAGCAUCA
B19: chr13:79312715:79312816:-|3pUTR|ENSG00000139746|unk|total|mutant (ssRNA)
RNA: GGGAGUUCUACAGUCCGACGAUCCCUUGUGAUUUAUUAUAAUGCCGCAGCAUACUUAUAAAAGUGGUCUGUGCUGAGUCAGACCGAGAGCCCAGCCCAUCCGAAACACAUCAUAAUUUAAGAAUAUGAUGCAGAAUGCCCUUACAACAGAGGAUUGAGCAUCA
B20: ENSG00000070961:be:win_401|CDS|ENSG00000070961|bound_else_gene|NA|bound_elsewhere_windowed (ssRNA)
RNA: GGGAGUUCUACAGUCCGACGAUCAUGCACUUUGUGGAGAAGUUUCUGUUGGGGAGGAAGAAGGUGAAGGUGAAACUGGUUGGAUUGAAGGAGCUGCAAUCCUCUUGUCUGUAGUGUGUGUGGUGUUAGUAACAGCUUUCAAUGCAACAGAGGAUUGAGCAUCA
B21: chr11:35231115:35231675:+|3pUTR|ENSG00000026508|msi1|FALSE|unique (ssRNA)
RNA: GGGAGUUCUACAGUCCGACGAUCCAGGACAAGGUUCAAAAUGGUUACAACAGCCUCUACCUGUCGCCCCAGGGAGAAAGGGGUAGUGAUACAAGUCUCAUAGCCAGAGAUGGUUUUCCACUCCUUCUAGAUAUUCCCAAAAAGCAACAGAGGAUUGAGCAUCA
B22: chr7:7234405:7234460:+|CDS|ENSG00000106392|msi1_unk|total|mutant (ssRNA)
RNA: GGGAGUUCUACAGUCCGACGAUCAAUUUUUUAACCUUCCUCUGUGGAUCAGCAACCGGAUUUCUUUUAUGUUCUCAGCUAUUCCGUAUUUUGUUGGGAGAAAAGGUUGACACCCAGCCUAAUGUUCUUCAUAAUGAUCCUCAUCAACAGAGGAUUGAGCAUCA

Each binder was assayed against T1, UNK ZnF1-6 (called full-length) (assay: nsRBNS (natural sequence RNA bind-n-seq); RBNS binding buffer (assumed for nsRBNS): 25 mM Tris pH 7.5, 150 mM KCl, 3 mM MgCl2, 0.01% Triton X-100, 500 ug/ml BSA, 20 U/ml SUPERase-In, 4 C; UNK is unkempt and MSI1 is Musashi-1; names of the RNAs are library labels; protein concentration not given here; high values mean tight binding).

Binder	binding signal [enrichment R]
B1	0.557
B2	0.972
B3	0.722
B4	0.546
B5	1.54
B6	0.818
B7	0.761
B8	0.489
B9	0.805
B10	0.756
B11	0.493
B12	0.472
B13	0.436
B14	0.416
B15	1.39
B16	0.603
B17	1.07
B18	0.352
B19	0.561
B20	1.25
B21	0.588
B22	0.449
